Reference: the RNAGym collection of RNA variant scans (doi:10.7554/elife.90254)
Read counts are not given, so values of variants with three or more changes are uncertain.

B1: LINE1-full (parent)
chain: UACGUAGGUGGUUUUCCCCUGAUAGUGCUAAGGGGGCCUGGAAGUUUGGACUGGGCAGAGCUCAACACAGCGUGGCAAAGUGGCUGUGGCUAGACUGCCUCUCUGGAUUCCUCGUCACUCAGCAGGGCAUCUCUGAGAGAAAUGCC

Variants of: B1
Experiment: self-cleavage, relative activity (ratio to wild type); higher = more cleavage; in vitro, sequencing; the parent is a self-cleaving ribozyme

Variant	self-cleavage
A67G U96C U108C	0
A64U U73C A129G	0.79
A77U A79G U85G A107G A140G	0
U12C C98U U119C	0.51
U14C A64G A69G	0
U12C U81A G97C	0.97
A50G A94U A117G	0
U9C U13C U29A G88A U112C A136G	0.19
U15A U45C A141G	0.77
U23C C95U A141G	0.31
A22G G36A A78G	0.72
U29C A69G U132A	1.18
U87A U134A A140G	0.09
G4A A30U U52A	1.29
U14C G35A C111A U115C	1.62
U9C U15C G49U U130C	1.21
U23C A59G U109C A138G	0
G4A U87A C128A	0.11
U47C A57U A94G A142G	0
U12C U96C U102A U132C	0.71
U13C C51U U52C A94U U115C	0.85

Variant	self-cleavage
A42G A94G A107G	0.37
U46A A78G U115A	1.07
A42G U52A A65G A136G	0.11
U15A U23C U39A U87A A92U	0.1
A6U A50G U85A	0.08
G34A A57G C90A U96C A142G	0.01
U13C U45G U81C U109G A141G	0
A24G A57U U112C	0.26
U26A U39C U62A U100C	0.04
U15C U96A G126A	0.08
U23C U104C C110U	1.66
G33C A57G U73C U96A	0
U85A A121G A124U A129U	0.1
U14C U15C A31C U62A U115A U130C	0
A43G G60C G75A C110A	0.01
A59U A64U A79G	0.68
A31U U62C A78G	0.2
U14C A79G U130C	0
U13C A24G G55C U62A	0.2
U13C A57U G72U A136G	0.11
C38U A65G U73C A142G	0.04

Variant	self-cleavage
U13C U130C A140G	2.7
U9C U13C U23C A59G	0
U20C U47C U81C	1.76
A67U A107G U109C U134A	0.11
C101A G127C U132A A136G G144A	0
C28G G80A A142U	1.43
U13C U15A G25A	1.22
U26C G49U A117G	0.52
G75A A117G U132C	1.94
A42G U119A A142G	1.15
G27A A57G A79G C145G	0.5
G32U G49U U132C	0.82
A43G A94G U108A	0.39
G10A U13C U134A	0.14
U29A U85C A141G	0.17
U12G U109C G125A	1.37
U13C C18A U47C A59G A69G A94U A142G	0.77
G40A A64U A107G	0.22
A2G A6U A138G G144A	0.77
G70U A77U A140G	0.03
U52C A59G U85C	0

Variant	self-cleavage
A67U A107U A138U	0.09
U15C U47C A78G	1.69
A22G A92U G127C A136G	0.53
U14C U73C U115C A129U	0
U15C U39C A50U U81C A94G U143C	0.57
U39A U47C G114A	0.78
U9C U45A U62C U119A	0.08
U26C A42G A138U	1.25
A77G U85A A121U	0.03
U1C A78G A92G	0
U29C A42G C90U	0.05
A22G A42G U73A U85G U109A C111U	0.17
U15C A64C C123U	0.66
U20A U96A A136G A138U C146U	0.05
U14C U39C U87A U143A	0.2
G41A U62C A64G	0.13
A6U A22U U39C G41A U87A U104G U115C A141G	0
A42U A65G C99U A138U	0.05
A22G U39C G88A A94G U104C U108C	0
U96C U102C A124U	0.11
